B1: TEV protease; numbered along this chain (parent)
chain: MGESLFKGPRDYNPISSSICHLTNESDGHTTSLYGIGFGPFIITNKHLFRRNNGTLVVQSLHGVFKVKDTTTLQQHLVDGRDMIIIRMPKDFPPFPQKLKFREPQREERICLVTTNFQTKSMSSMVSDTSCTFPSGDGIFWKHWIQTKDGQCGSPLVSTRDGFIVGIHSASNFTNTNNYFTSVPKNFMELLTNQEAQQWVSGWRLNADSVLWGGHKVFMVKPEEPFQPVKEATQL

In the test the parent is B1. Kind of test: raw area under fraction-flipped curve 0-4 h after induction (AUC4h, not background-subtracted), DNA-recorder readout of cleavage of the substrate (dimensionless); higher = more cleavage of the substrate by the protease variant. The following applies: temperature: 34 °C; time window: 0-4 h after rhamnose induction. The method, then:
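In vivo DNA recorder in E. coli TOP10(DE3) ΔrhaA at 34 °C. Each TEVp single-site mutant (parent TEVp 0) is paired with a single-site variant of the 7-mer TEVs (canonical ENLYFQ|S). The substrate sits between flexible linkers in a Bxb1-sfGFP-TEVs-SsrA fusion, so cleavage stabilises Bxb1 and speeds flipping of a recombination array, read by NGS. The value is the raw area under the fraction-flipped curve over 0-4 h after rhamnose induction (AUC4h), with ≥20 reads per time point. It is not background-subtracted; inactive controls average about 0.047.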

Some of the results follow. The full chains were built here from the parent and the listed change. Values near 0.05 are background.
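Further: Bxb1 expression induced with 0.2% (w/v) L-rhamnose at OD600 near 0.5, cultures sampled hourly, flipped fraction per protease–substrate barcode pair counted by paired-end Illumina sequencing.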

With MGESLFKGPRDYNPISSSICHLTNESDGHTTSLYGIGFGPFIITNKHLFRRNNGTLVVQSLHGVFKVKDTTTLQQHLVDGRDMIIIRMPKDFPPFPQKLKFREPQREERICLVTTNFQTSSMSSMVSDTSCTFPSGDGIFWKHWIQTKDGQCGSPLVSTRDGFIVGIHSASNFTNTNNYFTSVPKNFMELLTNQEAQQWVSGWRLNADSVLWGGHKVFMVKPEEPFQPVKEATQL [K120S], the “area with substrate ENAYFQS” value was determined as 0.0619, the “area with substrate ENCYFQS” value came to 0.0699, the “area with substrate ENDYFQS” value came to 0.0645 and the “area with substrate ENEYFQS” value came out at 0.0578. For the same variant, the “area with substrate ENFYFQS” value amounted to 0.0446, the “area with substrate ENGYFQS” value came out at 0.0492, the “area with substrate ENIYFQS” value turned out to be 0.111 and the “area with substrate ENNYFQS” value stood at 0.0774. The “area with substrate ENPYFQS” value turned out to be 0.0483, the “area with substrate ENQYFQS” value came out at 0.0624, the “area with substrate ENRYFQS” value came to 0.0619 and the “area with substrate ENSYFQS” value amounted to 0.0616. The “area with substrate ENTYFQS” value was 0.0698, the “area with substrate ENVYFQS” value was 0.0925 and the “area with substrate ENWYFQS” value was 0.0567.
In the case of MGESLFKGPRDYNPISSSICHLTNESDGHTTSLYGIGFGPFIITNKHLFRRNNGTLVVQSLHGVFKVKDTTTLQQHLVDGRDMIIIRMPKDFPPFPQKLKFREPQREERICLVTTNFQTKSMSSGVSDTSCTFPSGDGIFWKHWIQTKDGQCGSPLVSTRDGFIVGIHSASNFTNTNNYFTSVPKNFMELLTNQEAQQWVSGWRLNADSVLWGGHKVFMVKPEEPFQPVKEATQL [M125G], the “area with substrate ENAYFQS” value was 0.0745, the “area with substrate ENDYFQS” value is 0.0579, the “area with substrate ENEYFQS” value is 0.063 and the “area with substrate ENFYFQS” value is 0.0734. The “area with substrate ENGYFQS” value came to 0.0713, the “area with substrate ENMYFQS” value was 0.103, the “area with substrate ENNYFQS” value worked out at 0.0476 and the “area with substrate ENQYFQS” value came out at 0.0522. Further, the “area with substrate ENRYFQS” value amounted to 0.0518, the “area with substrate ENSYFQS” value was 0.0476, the “area with substrate ENWYFQS” value worked out at 0.0164 and the “area with substrate ENYYFQS” value was 0.0616.
On to MGESLFKGPRDYNPISSSICHLTNESDGHTTSLYGIGFGPFIITNKHLFRRNNGTLVVQSLHGVFKVKDTTTLQQHLVDGRDMIIIRMPKDFPPFPQKLKFREPQREERICLVTTNFQTKSMSSCVSDTSCTFPSGDGIFWKHWIQTKDGQCGSPLVSTRDGFIVGIHSASNFTNTNNYFTSVPKNFMELLTNQEAQQWVSGWRLNADSVLWGGHKVFMVKPEEPFQPVKEATQL [M125C], for which the “area with substrate ENAYFQS” value is 0.057, the “area with substrate ENDYFQS” value stood at 0.0653, the “area with substrate ENEYFQS” value stood at 0.059 and the “area with substrate ENFYFQS” value came out at 0.0697. The “area with substrate ENHYFQS” value is 0.0652, the “area with substrate ENMYFQS” value was found to be 0.0482, the “area with substrate ENNYFQS” value stood at 0.0686 and the “area with substrate ENPYFQS” value stood at 0.0615. Also, the “area with substrate ENQYFQS” value turned out to be 0.0521, the “area with substrate ENRYFQS” value amounted to 0.0578, the “area with substrate ENSYFQS” value was found to be 0.0446 and the “area with substrate ENTYFQS” value stood at 0.0502. Further, the “area with substrate ENVYFQS” value was determined as 0.0689 and the “area with substrate ENYYFQS” value amounted to 0.0553.
For the variant MGESLFKGPRDYNPISSSICHLTNESDGHTTSLYGIGFGPFIITNKHLFRRNNGTLVVQSLHGVFKVKDTTTLQQHLVDGRDMIIIRMPKDFPPFPQKLKFREPQREERICLVTTNFQTKSMSSAVSDTSCTFPSGDGIFWKHWIQTKDGQCGSPLVSTRDGFIVGIHSASNFTNTNNYFTSVPKNFMELLTNQEAQQWVSGWRLNADSVLWGGHKVFMVKPEEPFQPVKEATQL [M125A], the “area with substrate ENAYFQS” value turned out to be 0.0529, the “area with substrate ENCYFQS” value came to 0.0865, the “area with substrate ENDYFQS” value turned out to be 0.0677 and the “area with substrate ENEYFQS” value amounted to 0.0541. The “area with substrate ENFYFQS” value was found to be 0.0424, the “area with substrate ENIYFQS” value came out at 0.125, the “area with substrate ENNYFQS” value was 0.064 and the “area with substrate ENQYFQS” value turned out to be 0.0574. Moreover, the “area with substrate ENSYFQS” value was determined as 0.0698, the “area with substrate ENVYFQS” value stood at 0.0676 and the “area with substrate ENYYFQS” value was 0.0531.
With MGESLFKGPRDYNPISSSICHLTNESDGHTTSLYGIGFGPFIITNKHLFRRNNGTLVVQSLHGVFKVKDTTTLQQHLVDGRDMIIIRMPKDFPPFPQKLKFREPQREERICLVTTNFQTKSMSSQVSDTSCTFPSGDGIFWKHWIQTKDGQCGSPLVSTRDGFIVGIHSASNFTNTNNYFTSVPKNFMELLTNQEAQQWVSGWRLNADSVLWGGHKVFMVKPEEPFQPVKEATQL [M125Q], the “area with substrate ENAYFQS” value came out at 0.0566, the “area with substrate ENCYFQS” value was 0.0741, the “area with substrate ENEYFQS” value was determined as 0.0628 and the “area with substrate ENFYFQS” value came to 0.0606. The “area with substrate ENGYFQS” value came out at 0.0405, the “area with substrate ENKYFQS” value worked out at 0.0656, the “area with substrate ENMYFQS” value stood at 0.0943 and the “area with substrate ENNYFQS” value was found to be 0.0532. Further, the “area with substrate ENPYFQS” value is 0.0612, the “area with substrate ENQYFQS” value was determined as 0.063, the “area with substrate ENRYFQS” value was found to be 0.0479 and the “area with substrate ENSYFQS” value amounted to 0.0754. Moreover, the “area with substrate ENTYFQS” value amounted to 0.0696, the “area with substrate ENVYFQS” value came out at 0.101, the “area with substrate ENWYFQS” value is 0.004 and the “area with substrate ENYYFQS” value was found to be 0.0668.
Turning to MGESLFKGPRDYNPISSSICHLTNESDGHTTSLYGIGFGPFIITNKHLFRRNNGTLVVQSLHGVFKVKDTTTLQQHLVDGRDMIIIRMPKDFPPFPQKLKFREPQREERICLVTTNFQTKSMSSPVSDTSCTFPSGDGIFWKHWIQTKDGQCGSPLVSTRDGFIVGIHSASNFTNTNNYFTSVPKNFMELLTNQEAQQWVSGWRLNADSVLWGGHKVFMVKPEEPFQPVKEATQL [M125P], the “area with substrate ENAYFQS” value turned out to be 0.0389, the “area with substrate ENCYFQS” value came to 0.082, the “area with substrate ENDYFQS” value stood at 0.0534 and the “area with substrate ENEYFQS” value was 0.065. For the same variant, the “area with substrate ENGYFQS” value came to 0.0688, the “area with substrate ENMYFQS” value was 0.0763, the “area with substrate ENNYFQS” value worked out at 0.0657 and the “area with substrate ENPYFQS” value was found to be 0.0497. The “area with substrate ENQYFQS” value is 0.0441, the “area with substrate ENSYFQS” value is 0.0526 and the “area with substrate ENVYFQS” value was 0.0801.
Consider MGESLFKGPRDYNPISSSICHLTNESDGHTTSLYGIGFGPFIITNKHLFRRNNGTLVVQSLHGVFKVKDTTTLQQHLVDGRDMIIIRMPKDFPPFPQKLKFREPQREERICLVTTNFQDKSMSSMVSDTSCTFPSGDGIFWKHWIQTKDGQCGSPLVSTRDGFIVGIHSASNFTNTNNYFTSVPKNFMELLTNQEAQQWVSGWRLNADSVLWGGHKVFMVKPEEPFQPVKEATQL [T119D], for which the “area with substrate ENAYFQS” value turned out to be 0.0644, the “area with substrate ENCYFQS” value was found to be 0.0763, the “area with substrate ENDYFQS” value worked out at 0.0695 and the “area with substrate ENGYFQS” value amounted to 0.0575. Also, the “area with substrate ENHYFQS” value amounted to 0.0362, the “area with substrate ENMYFQS” value came to 0.0858, the “area with substrate ENPYFQS” value was 0.069 and the “area with substrate ENQYFQS” value turned out to be 0.0526. Also, the “area with substrate ENSYFQS” value is 0.068, the “area with substrate ENVYFQS” value was 0.0729 and the “area with substrate ENWYFQS” value stood at 0.0539.
With MGESLFKGPRDYNPISSSICHLTNESDGHTTSLYGIGFGPFIITNKHLFRRNNGTLVVQSLHGVFKVKDTTTLQQHLVDGRDMIIIRMPKDFPPFPQKLKFREPQREERICLVTTNFQVKSMSSMVSDTSCTFPSGDGIFWKHWIQTKDGQCGSPLVSTRDGFIVGIHSASNFTNTNNYFTSVPKNFMELLTNQEAQQWVSGWRLNADSVLWGGHKVFMVKPEEPFQPVKEATQL [T119V], the “area with substrate ENAYFQS” value came out at 0.0616, the “area with substrate ENCYFQS” value turned out to be 0.0629, the “area with substrate ENDYFQS” value came to 0.0576 and the “area with substrate ENEYFQS” value turned out to be 0.0557. For the same variant, the “area with substrate ENMYFQS” value worked out at 0.0834, the “area with substrate ENNYFQS” value is 0.0719, the “area with substrate ENPYFQS” value turned out to be 0.0649 and the “area with substrate ENRYFQS” value worked out at 0.066. Moreover, the “area with substrate ENSYFQS” value was found to be 0.0664, the “area with substrate ENVYFQS” value was 0.0756 and the “area with substrate ENWYFQS” value turned out to be 0.0098.
For the variant MGESLFKGPRDYNPISSSICHLTNESDGHTTSLYGIGFGPFIITNKHLFRRNNGTLVVQSLHGVFKVKDTTTLQQHLVDGRDMIIIRMPKDFPPFPQKLKFREPQREERICLVTTNFQTKSMSHMVSDTSCTFPSGDGIFWKHWIQTKDGQCGSPLVSTRDGFIVGIHSASNFTNTNNYFTSVPKNFMELLTNQEAQQWVSGWRLNADSVLWGGHKVFMVKPEEPFQPVKEATQL [S124H], the “area with substrate ENAYFQS” value was found to be 0.0475, the “area with substrate ENCYFQS” value was 0.067, the “area with substrate ENEYFQS” value stood at 0.0526 and the “area with substrate ENFYFQS” value is 0.0646. Besides, the “area with substrate ENGYFQS” value worked out at 0.0426, the “area with substrate ENIYFQS” value turned out to be 0.129, the “area with substrate ENNYFQS” value was determined as 0.0574 and the “area with substrate ENPYFQS” value is 0.0653. Further, the “area with substrate ENRYFQS” value came out at 0.0821, the “area with substrate ENTYFQS” value worked out at 0.0778, the “area with substrate ENVYFQS” value was 0.0812 and the “area with substrate ENWYFQS” value was found to be 0. The “area with substrate ENYYFQS” value worked out at 0.0437.

These data come from the supplement of paper PMC12217912.
